In paper PMC5679597:
These are yes or no findings as the source states them, for the method shown. Binding seen in cells or lysates may run through a third protein. Some results given as binding are weak or reduced against the parent protein; the word gives no strength. Tags and fused reporters may be left off the sequences shown.

Chains of the proteins cited; added tags and fusions are not shown.
UniProt Q13136: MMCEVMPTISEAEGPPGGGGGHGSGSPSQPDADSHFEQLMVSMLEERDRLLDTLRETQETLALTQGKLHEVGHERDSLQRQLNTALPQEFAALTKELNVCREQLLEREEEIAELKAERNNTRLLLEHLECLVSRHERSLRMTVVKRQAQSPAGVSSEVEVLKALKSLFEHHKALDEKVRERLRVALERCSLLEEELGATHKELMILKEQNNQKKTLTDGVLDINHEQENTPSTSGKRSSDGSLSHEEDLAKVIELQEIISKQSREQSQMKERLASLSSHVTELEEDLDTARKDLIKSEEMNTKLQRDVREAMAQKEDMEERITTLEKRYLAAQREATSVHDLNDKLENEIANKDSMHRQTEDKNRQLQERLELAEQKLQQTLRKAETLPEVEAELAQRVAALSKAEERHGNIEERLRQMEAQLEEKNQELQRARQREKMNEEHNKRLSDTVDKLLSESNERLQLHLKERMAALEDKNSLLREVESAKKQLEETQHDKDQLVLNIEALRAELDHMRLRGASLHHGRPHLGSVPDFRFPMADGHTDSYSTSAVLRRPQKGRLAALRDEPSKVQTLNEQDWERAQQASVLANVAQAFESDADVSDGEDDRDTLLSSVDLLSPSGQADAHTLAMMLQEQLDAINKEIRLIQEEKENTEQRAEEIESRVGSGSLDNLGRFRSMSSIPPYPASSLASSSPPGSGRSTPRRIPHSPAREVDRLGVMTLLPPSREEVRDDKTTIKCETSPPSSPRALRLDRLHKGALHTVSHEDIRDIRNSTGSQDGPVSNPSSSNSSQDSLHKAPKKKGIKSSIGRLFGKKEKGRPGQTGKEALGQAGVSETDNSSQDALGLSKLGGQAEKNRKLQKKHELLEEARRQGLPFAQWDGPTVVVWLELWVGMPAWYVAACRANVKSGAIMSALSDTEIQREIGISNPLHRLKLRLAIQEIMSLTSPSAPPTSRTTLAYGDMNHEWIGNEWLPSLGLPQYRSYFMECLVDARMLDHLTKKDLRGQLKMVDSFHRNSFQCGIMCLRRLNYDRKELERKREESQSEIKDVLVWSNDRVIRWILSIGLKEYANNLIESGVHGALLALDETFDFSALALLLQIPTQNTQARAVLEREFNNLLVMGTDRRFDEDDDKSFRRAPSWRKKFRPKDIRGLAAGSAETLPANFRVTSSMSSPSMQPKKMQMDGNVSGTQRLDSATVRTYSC

T1: GFP-tagged MID2 (Fig 5E) (human) (UniProt Q9UJV3)
T1 sequence: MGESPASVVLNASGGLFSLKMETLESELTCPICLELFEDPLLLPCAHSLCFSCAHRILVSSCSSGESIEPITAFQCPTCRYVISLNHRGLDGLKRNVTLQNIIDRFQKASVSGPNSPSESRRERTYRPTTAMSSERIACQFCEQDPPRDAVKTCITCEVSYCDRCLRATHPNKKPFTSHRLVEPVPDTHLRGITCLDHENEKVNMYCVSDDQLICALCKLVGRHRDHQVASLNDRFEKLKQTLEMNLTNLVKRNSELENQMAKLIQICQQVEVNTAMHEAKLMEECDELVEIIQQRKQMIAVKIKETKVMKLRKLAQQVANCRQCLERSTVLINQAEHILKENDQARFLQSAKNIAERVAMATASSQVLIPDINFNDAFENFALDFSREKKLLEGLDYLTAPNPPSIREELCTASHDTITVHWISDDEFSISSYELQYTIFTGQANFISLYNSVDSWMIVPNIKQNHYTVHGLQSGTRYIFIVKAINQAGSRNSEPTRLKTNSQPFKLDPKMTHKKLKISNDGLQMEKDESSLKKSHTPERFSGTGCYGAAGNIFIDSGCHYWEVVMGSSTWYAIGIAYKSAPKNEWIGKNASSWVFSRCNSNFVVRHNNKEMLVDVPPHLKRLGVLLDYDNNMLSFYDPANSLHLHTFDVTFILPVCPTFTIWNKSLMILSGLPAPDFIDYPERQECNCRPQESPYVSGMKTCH

T2: GFP-LNX1 PDZ2 (aa377-470) (mouse) (UniProt O70263)
T2 sequence: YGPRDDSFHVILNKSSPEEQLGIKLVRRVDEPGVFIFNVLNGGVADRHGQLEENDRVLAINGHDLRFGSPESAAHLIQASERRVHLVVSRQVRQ

T3: GFP-tagged LNX1p80 (Ligand of Numb protein X1, p80 isoform) (mouse) (UniProt O70263)
T3 sequence: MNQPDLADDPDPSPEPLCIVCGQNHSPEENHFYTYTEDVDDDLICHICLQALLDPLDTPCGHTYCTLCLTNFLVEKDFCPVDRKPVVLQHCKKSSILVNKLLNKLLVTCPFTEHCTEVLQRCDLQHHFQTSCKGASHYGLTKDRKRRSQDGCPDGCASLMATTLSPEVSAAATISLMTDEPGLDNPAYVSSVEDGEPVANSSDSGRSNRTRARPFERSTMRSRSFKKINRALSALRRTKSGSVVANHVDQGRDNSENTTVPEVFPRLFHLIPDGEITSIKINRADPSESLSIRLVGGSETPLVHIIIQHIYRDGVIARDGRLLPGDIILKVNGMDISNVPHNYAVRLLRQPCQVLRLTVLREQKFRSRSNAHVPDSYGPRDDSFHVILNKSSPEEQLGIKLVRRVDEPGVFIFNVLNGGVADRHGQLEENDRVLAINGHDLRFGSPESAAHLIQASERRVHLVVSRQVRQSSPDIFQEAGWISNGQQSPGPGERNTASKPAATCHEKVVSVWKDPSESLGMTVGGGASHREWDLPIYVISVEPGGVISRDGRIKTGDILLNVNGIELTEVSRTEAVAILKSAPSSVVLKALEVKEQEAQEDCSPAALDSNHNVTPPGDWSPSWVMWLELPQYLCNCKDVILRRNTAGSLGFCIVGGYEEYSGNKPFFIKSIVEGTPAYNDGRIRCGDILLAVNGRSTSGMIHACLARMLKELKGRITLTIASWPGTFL

T4: GFP-LNX1 PDZ1 (aa271-384) (mouse) (UniProt O70263)
T4 sequence: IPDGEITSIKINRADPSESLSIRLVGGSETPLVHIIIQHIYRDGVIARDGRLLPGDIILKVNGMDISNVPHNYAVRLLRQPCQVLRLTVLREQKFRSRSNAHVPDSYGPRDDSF

T5: GFP-tagged LNX2 (mouse) (UniProt Q91XL2)
T5 sequence: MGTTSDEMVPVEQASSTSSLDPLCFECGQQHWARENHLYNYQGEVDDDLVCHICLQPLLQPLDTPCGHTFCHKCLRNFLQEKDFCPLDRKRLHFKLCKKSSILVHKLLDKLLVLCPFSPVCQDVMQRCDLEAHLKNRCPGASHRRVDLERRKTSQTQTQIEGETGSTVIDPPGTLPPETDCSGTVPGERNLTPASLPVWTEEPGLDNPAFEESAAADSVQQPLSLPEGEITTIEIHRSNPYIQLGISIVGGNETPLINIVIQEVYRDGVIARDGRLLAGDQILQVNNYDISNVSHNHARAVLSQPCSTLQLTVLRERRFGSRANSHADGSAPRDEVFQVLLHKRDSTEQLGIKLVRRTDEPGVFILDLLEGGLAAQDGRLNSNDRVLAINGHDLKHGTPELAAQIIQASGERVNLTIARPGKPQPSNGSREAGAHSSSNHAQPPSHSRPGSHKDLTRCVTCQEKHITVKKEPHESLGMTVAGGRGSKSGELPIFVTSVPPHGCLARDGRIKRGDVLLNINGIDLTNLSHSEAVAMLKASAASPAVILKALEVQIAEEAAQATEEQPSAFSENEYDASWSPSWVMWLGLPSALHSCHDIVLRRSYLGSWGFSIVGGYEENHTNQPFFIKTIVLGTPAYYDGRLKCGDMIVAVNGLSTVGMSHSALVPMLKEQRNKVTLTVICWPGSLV


Columns and labels:
[1] = biological target: T1, GFP-tagged MID2 (Fig 5E) (human); experiment: pull-down; GFP pull-down of GFP-tagged MID2 from cells co-transfected with untagged LNX1p70 and FLAG-liprin-α1, western blot
[2] = biological target: T2, GFP-LNX1 PDZ2 (aa377-470) (mouse); experiment: pull-down; GFP pull-down: GFP-tagged LNX constructs transfected into HEK 293 cells (HEK 293T in Fig 3A) alone or with the partner, captured on GFP-Trap_M beads, western blot; NaCl in the wash up to 500 mM in some cases
[3] = biological target: T3, GFP-tagged LNX1p80 (Ligand of Numb protein X1, p80 isoform) (mouse); experiment: as above
[4] = biological target: T4, GFP-LNX1 PDZ1 (aa271-384) (mouse); experiment: as above
GFP-tagged LNX2 (mouse) = biological target: T5, GFP-tagged LNX2 (mouse); experiment: as above
[5] = biological target: T3, GFP-tagged LNX1p80 (Ligand of Numb protein X1, p80 isoform) (mouse); experiment: pull-down; GFP pull-down of GFP-LNX1p80 from HEK 293 cells co-transfected with FLAG-MID1 and HA-MID2, western blot

| Molecule | binding [1] | binding [2] | binding [3] | binding [4] | binding (GFP-tagged LNX2 (mouse)) | binding [5] |
| --- | --- | --- | --- | --- | --- | --- |
| wild-type FLAG-liprin-α1 (from UniProt Q13136 1-1202) | no binding | binds | binds |  |  |  |
| SynGAP1, transfected, HA or GST epitope-tagged (Fig 1B) (protein, UniProt Q96PV0 1-1343) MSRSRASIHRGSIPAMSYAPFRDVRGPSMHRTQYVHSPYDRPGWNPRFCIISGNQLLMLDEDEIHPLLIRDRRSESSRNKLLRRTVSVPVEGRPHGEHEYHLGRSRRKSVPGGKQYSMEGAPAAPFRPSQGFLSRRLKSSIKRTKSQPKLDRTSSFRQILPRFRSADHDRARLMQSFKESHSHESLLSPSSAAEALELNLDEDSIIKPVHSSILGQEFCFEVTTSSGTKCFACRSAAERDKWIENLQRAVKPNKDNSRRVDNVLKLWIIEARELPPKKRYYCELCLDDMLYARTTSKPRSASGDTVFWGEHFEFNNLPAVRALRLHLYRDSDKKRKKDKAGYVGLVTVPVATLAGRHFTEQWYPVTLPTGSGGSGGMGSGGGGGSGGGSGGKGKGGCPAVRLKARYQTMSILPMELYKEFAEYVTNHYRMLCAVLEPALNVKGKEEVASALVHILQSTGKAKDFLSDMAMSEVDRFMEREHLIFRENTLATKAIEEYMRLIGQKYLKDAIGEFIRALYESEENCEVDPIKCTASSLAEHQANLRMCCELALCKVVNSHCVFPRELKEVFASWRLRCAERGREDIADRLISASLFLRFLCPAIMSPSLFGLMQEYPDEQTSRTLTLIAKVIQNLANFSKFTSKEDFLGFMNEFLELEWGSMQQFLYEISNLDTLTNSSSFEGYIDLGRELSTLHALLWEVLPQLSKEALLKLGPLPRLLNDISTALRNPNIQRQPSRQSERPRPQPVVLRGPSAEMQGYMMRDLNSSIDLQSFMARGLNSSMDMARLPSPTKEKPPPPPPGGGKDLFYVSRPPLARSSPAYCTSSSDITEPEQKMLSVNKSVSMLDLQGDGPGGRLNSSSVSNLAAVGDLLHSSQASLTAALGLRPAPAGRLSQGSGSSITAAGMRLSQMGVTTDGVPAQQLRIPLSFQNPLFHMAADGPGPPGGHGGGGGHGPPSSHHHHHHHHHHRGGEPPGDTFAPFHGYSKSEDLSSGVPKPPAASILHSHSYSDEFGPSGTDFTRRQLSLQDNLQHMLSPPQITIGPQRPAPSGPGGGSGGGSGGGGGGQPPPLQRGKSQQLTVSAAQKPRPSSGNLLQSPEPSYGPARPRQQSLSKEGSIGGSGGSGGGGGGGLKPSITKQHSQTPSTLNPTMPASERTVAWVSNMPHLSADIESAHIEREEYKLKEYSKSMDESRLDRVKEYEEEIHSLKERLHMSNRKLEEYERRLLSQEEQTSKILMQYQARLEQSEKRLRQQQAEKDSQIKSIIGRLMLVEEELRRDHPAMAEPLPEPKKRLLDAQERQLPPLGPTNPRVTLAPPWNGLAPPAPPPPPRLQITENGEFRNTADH |  | binds | binds | binds | binds |  |
| HA epitope-tagged MID2 (Fig 5C) (protein, UniProt Q9UJV3-2 1-705) MGESPASVVLNASGGLFSLKMETLESELTCPICLELFEDPLLLPCAHSLCFSCAHRILVSSCSSGESIEPITAFQCPTCRYVISLNHRGLDGLKRNVTLQNIIDRFQKASVSGPNSPSESRRERTYRPTTAMSSERIACQFCEQDPPRDAVKTCITCEVSYCDRCLRATHPNKKPFTSHRLVEPVPDTHLRGITCLDHENEKVNMYCVSDDQLICALCKLVGRHRDHQVASLNDRFEKLKQTLEMNLTNLVKRNSELENQMAKLIQICQQVEVNTAMHEAKLMEECDELVEIIQQRKQMIAVKIKETKVMKLRKLAQQVANCRQCLERSTVLINQAEHILKENDQARFLQSAKNIAERVAMATASSQVLIPDINFNDAFENFALDFSREKKLLEGLDYLTAPNPPSIREELCTASHDTITVHWISDDEFSISSYELQYTIFTGQANFISLYNSVDSWMIVPNIKQNHYTVHGLQSGTRYIFIVKAINQAGSRNSEPTRLKTNSQPFKLDPKMTHKKLKISNDGLQMEKDESSLKKSHTPERFSGTGCYGAAGNIFIDSGCHYWEVVMGSSTWYAIGIAYKSAPKNEWIGKNASSWVFSRCNSNFVVRHNNKEMLVDVPPHLKRLGVLLDYDNNMLSFYDPANSLHLHTFDVTFILPVCPTFTIWNKSLMILSGLPAPDFIDYPERQECNCRPQESPYVSGMKTCH |  |  |  |  |  | binds |
